# Measured values as given in PubChem BioAssay AID624418 (National Center for Advancing Translational Sciences (NCATS), 2012).
# Screen size: about 410,000 compounds; about 530 (0.13%) were called active. The shares of active, inactive and inconclusive entries below differ from those in the screen. Calls come from the whole dose curve; as a rule, active = well fitted inhibition curve with a large enough effect; inconclusive = small, poorly fitted or top-dose-only effect, or another doubt; inactive = no such curve, though single readings can be large or run the other way. Potencies beside an inconclusive call are fits to weak or partial responses and may not hold up.
# Test: qHTS of GLP-1 Receptor Inverse Agonists: Cytotox Screen
# Conditions: HEK293 cAMP-luciferase reporter cells, luminescence, 24 h; activity change, negative = inhibition: at 38.3 µM (top of the series) unless noted
# In short: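 Compound-treated cells are incubated 24 hr at 37 deg C under 5% CO2 after a 12 hour attachment period, then luciferase detection reagent is added and luminescence is measured following 12 min at room temperature; lowered signal indicates toxicity.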
# % is set by controls: 0 for no effect and ±100 for the full control effect; potency is the fitted concentration of half-maximal effect.
Structure (SMILES),Potency,"activity change, negative = inhibition"
CCN1CCN(c2ccc(S(=O)(=O)N3CCCCC3)cc2NC(=O)COc2cc(C)ccc2Cl)CC1,"inconclusive: 28.2 µM [inhibitor, single point]",–
CC(C)Oc1ccc(CCC(=O)N/N=C/c2ccncc2)cc1,–,inactive: 7.61%
O=C(O)CC/C(=N\Nc1ccc(S(=O)(=O)N2CCOCC2)cc1[N+](=O)[O-])c1cccs1,"inconclusive: 22.4 µM [inhibitor, single point]",–
C=CC(=O)Nc1cccc(Oc2ccnc3[nH]ccc23)c1,"inconclusive: 8.91 µM [inhibitor, partial curve, poor fit]",–
Cc1nc2ccc(NC(=O)c3cnc(Cl)c(Cl)c3)cc2s1,"inconclusive: 12.6 µM [inhibitor, partial curve, poor fit]",–
Cn1c(=N)n(CC(=O)C(C)(C)C)c2ccccc21,"inconclusive: 28.2 µM [inhibitor, single point]",–
C=CCSc1cc(C)nc2c(-c3ccccc3)c(C)nn12,"inconclusive: 10 µM [inhibitor, partial curve, poor fit]",–
Cn1c(N)c(C(=O)CSc2nnc(C3CC3)n2-c2ccccc2)c(=O)n(C)c1=O,–,inactive: -7.34%
CCN(CC)C(=O)c1sc2c(c1C)c(=O)n(-c1ccccc1)c(=O)n2Cc1c(C)cc(C)cc1C,–,inactive: -4.48%
CCOC(=O)N1CCN(C(=O)c2ccc(Cn3c(=S)[nH]c4cc5c(cc4c3=O)OCO5)cc2)CC1,"inconclusive: 5.62 µM [inhibitor, full curve, poor fit]",–
C=CC(=O)N1C/C=C\C(c2ccc(OC)cc2)N(Cc2ccc(F)cc2)C(=O)C1 (stereo not drawn),"inconclusive: 6.31 µM [inhibitor, partial curve, poor fit]",–
CC(Oc1ccc(Br)cc1)C(=O)NC1CCN(Cc2ccccc2)CC1 (stereo not drawn),"inconclusive: 10 µM [inhibitor, single point]",–
CCOc1ccc(-n2c(-c3ccc(OC)cc3)c[n+]3c2CCCCC3)cc1,"inconclusive: 4.47 µM [inhibitor, partial curve]",–
CCOC(=O)NCc1ccc(Cl)c(Cl)c1,–,inactive: -6.7%
CCCN1CCCc2cc(CN(CCCN3CCOCC3)C(=O)Nc3ccc(CC)cc3)ccc21,"inconclusive: 10 µM [inhibitor, single point]",–
NC(=O)c1cccnc1Nc1ccccc1F,"inconclusive: 28.2 µM [inhibitor, single point]",–
Cc1cc(C)c(NC(=S)NCCCSC2CCCCC2)c(C)c1,"inconclusive: 12.6 µM [inhibitor, single point]",–
COc1cccc(NS(=O)(=O)c2ccc3[nH]cc(C(=O)N(C)C4CCCCC4)c(=O)c3c2)c1,–,inactive: -6.62%
COc1ccc(S(=O)(=O)N(C)c2ccc(C(=O)N3CCOCC3)cc2)cc1,–,inactive: -14.6%
O=C(N/C(=C\c1cccs1)C(=O)N1CCCCCC1)c1ccccc1,"inconclusive: 1 µM [inhibitor, full curve, poor fit]",–
COc1ccc(NS(=O)(=O)c2cccc(C(=O)N/N=C/c3cccs3)c2)cc1,"inconclusive: 20 µM [inhibitor, single point]",–
On1ccccc1=S,–,inactive: -3.54%

Structure (SMILES),Potency,"activity change, negative = inhibition"
COc1cccc(/C=N/Nc2nc(Nc3ccccc3)nc(-n3nc(C)cc3C)n2)c1O,"inconclusive: 0.316 µM [inhibitor, full curve, poor fit]",–
Cc1nnc(N2CCN(C(=O)Nc3cccc(C(F)(F)F)c3)CC2)c2nn(-c3ccccc3)c(C)c12,–,inactive: -7.07%
CCc1nc(SCC(=O)Nc2ccc(NC(C)=O)cc2)n[nH]1,–,inactive: -10.1%
C=CCC[C@H](Cc1ccc(F)cc1)C(=O)O[C@H](CNC(=O)[C@@H](CC=C)CC(=O)N(CCO)Cc1ccccc1)c1ccccc1,"inconclusive: 10 µM [inhibitor, single point]",–
Cc1ccc2[nH]c(C(=O)N/N=C/c3ccc([N+](=O)[O-])cc3)c(C)c2c1,"inconclusive: 2.24 µM [inhibitor, partial curve, poor fit]",–
O=C(Nc1ccc(Cl)c(Cl)c1)N1CCC(c2ccccc2)C1 (stereo not drawn),–,inactive: -8.62%
CCn1cc(C(=O)NCCCN2CCCCCC2)c(=O)c2cc(S(=O)(=O)N3CCc4ccccc4C3)ccc21,"inconclusive: 31.6 µM [inhibitor, single point]",–
Cc1cccc(NC(=S)NC(=O)/C=C/c2ccco2)c1,"inconclusive: 8.91 µM [inhibitor, partial curve, poor fit]",–
CC(C)(C)c1ccc(OCC(=O)Nc2ccncc2)c(Br)c1,"inconclusive: 7.08 µM [inhibitor, partial curve, poor fit]",–
CCc1cccc2c(C(=O)CN3C(=O)NC4(CCCCCC4)C3=O)c[nH]c12,"inconclusive: 12.6 µM [inhibitor, single point]",–
COc1ccc(CNc2ncnc3c2nnn3C)cc1,–,inactive: 0.487%
CCN1CCN(c2cc(C)c3cc(NC(=S)N4CC(C)CC(C)C4)ccc3n2)CC1 (stereo not drawn),"inconclusive: 10 µM [inhibitor, partial curve]",–
CC1(C)CC2CC(C)(CN2C(=O)Cc2ccccc2)C1 (stereo not drawn),–,inactive: -26.8%
COc1ccc(C(=O)N2CCc3cc(OC)c(OC)cc3C2COc2ccccc2OC)cc1 (stereo not drawn),–,inactive: -11.3%
S=C(NCCSCc1ccccc1Cl)Nc1ccccc1,"inconclusive: 28.2 µM [inhibitor, single point]",–
COc1ccc(-c2oc3cc(O)c(OC)c(O)c3c(=O)c2OC)cc1,"inconclusive: 8.91 µM [inhibitor, partial curve]",–
CCCCN(CC)C(=O)Nc1ccc2c(c1)N(C)C(=O)c1ccccc1S2,–,inactive: 7.48%
COc1ccc(-c2cc(C(=O)N3CCc4ccccc4C3)no2)cc1,–,inactive: -10.4%
CCN1CCN(c2cc(C)c3cc(NC(=O)c4ccc(Br)o4)ccc3n2)CC1,"inconclusive: 11.2 µM [inhibitor, single point]",–
N/C(Cc1ccc(Cl)cc1)=N\OC(=O)c1cccc2ccccc12,"inconclusive: 28.2 µM [inhibitor, single point]",–
O=C(N/N=C/c1ccc(Br)o1)/C(=C/c1ccc([N+](=O)[O-])cc1)NC(=O)c1ccccc1,"inconclusive: 5.62 µM [inhibitor, full curve, poor fit]",–
